From patent US20250375530A1 (ALMAC DISCOVERY, published 2025)

Target: T1, human ROR1-Fc (CHO) (human)
T1 construct: also called hROR1-Fc; huROR1-Fc
Experiment: BLI, hROR1; MMAE conjugate

- Kd: 0.54 nM
B1: BA11-G3CP MA-vc-PAB-MMAE conjugate (Cys linker) (VNAR, not shown: small tags and cut ends)
chain: TRVDQSPSSLSASVGDRVTITCVLTDTSYPLYSTYWYRKNPGSSNKEQISISGRYSESVNKGTKSFTLTISSLQPEDSATYYCRAMSTNIWTGDGAGTKVEIKPGVQPCPGGGGG[skipping about 120 residues]
modifications: MA-vc-PAB-MMAE on the single cysteine of the linker …
notes: DAR 1.0
